# Results published in PubChem BioAssay (Tox21).
# Several values for one entry are separate records, joined by “and”; a condition that tells them apart may be missing. Equal entries are not always repeated. Inconclusive results, whose numbers are uncertain, are shown with a selection of clear calls. Where the call is inconclusive, the potency comes from a doubtful curve fit. Activity calls are given as the source filed them. Unless noted, calls come from the whole dose curve; as a rule, active = well fitted cell-killing curve with a large enough effect in the repeat runs; inconclusive = weak or mixed curves, or effect the other way; inactive = no such curve, though single readings can be large or run the other way.
# Molecular target: Glucocorticoid receptor (Homo sapiens) (UniProt P04150)
# Experiment: qHTS assay to identify small molecule agonists of the glucocorticoid receptor (GR) signaling pathway (AID 720691; active = well fitted activation curve with a large enough effect in the signal ratio in the repeat runs, not every such curve was filed as active; inconclusive = weak or mixed curves, or effect the other way; inactive = no such curve, though single readings can be large or run the other way; the % refers to the signal ratio)
# Details: GR-bla HeLa, beta-lactamase reporter ratio, 18 h; activation: at 62.4 µM (top of the series) unless noted
# How it was run: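 Steps: seed GR-bla HeLa cells, incubate 4 h at 37 C/5% CO2; pin-transfer DMSO-dissolved compounds; incubate 18 h at 37 C; add LiveBLAzer B/G FRET substrate; after 2 h at room temperature, measure fluorescence.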
# % is set by controls: 0 for no effect and ±100 for the full control effect; potency is the fitted concentration of half-maximal effect; tags give direction and shape of the fitted curve or compound fluorescence and quenching.
# Chain of UniProt P04150 (P04150 whole entry, looked up): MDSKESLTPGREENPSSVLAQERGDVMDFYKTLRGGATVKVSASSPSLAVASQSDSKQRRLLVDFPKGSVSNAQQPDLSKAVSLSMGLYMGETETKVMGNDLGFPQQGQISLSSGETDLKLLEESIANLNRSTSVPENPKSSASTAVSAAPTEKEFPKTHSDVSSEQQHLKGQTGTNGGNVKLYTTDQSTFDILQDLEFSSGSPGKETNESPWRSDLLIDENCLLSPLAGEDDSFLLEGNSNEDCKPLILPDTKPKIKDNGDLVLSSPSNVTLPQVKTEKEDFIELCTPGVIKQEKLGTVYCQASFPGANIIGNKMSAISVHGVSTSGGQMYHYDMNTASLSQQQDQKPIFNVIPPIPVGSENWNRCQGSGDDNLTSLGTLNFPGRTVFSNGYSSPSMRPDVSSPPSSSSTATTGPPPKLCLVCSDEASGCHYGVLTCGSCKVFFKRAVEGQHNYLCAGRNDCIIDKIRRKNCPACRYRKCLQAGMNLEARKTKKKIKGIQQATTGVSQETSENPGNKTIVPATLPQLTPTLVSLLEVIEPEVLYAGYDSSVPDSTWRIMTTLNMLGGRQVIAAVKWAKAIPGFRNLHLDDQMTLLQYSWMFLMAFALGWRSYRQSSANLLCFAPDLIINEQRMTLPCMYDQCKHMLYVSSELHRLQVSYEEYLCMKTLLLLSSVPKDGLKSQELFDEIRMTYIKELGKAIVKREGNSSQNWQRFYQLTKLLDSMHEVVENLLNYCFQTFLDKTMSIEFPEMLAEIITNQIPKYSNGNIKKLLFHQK
row,SMILES,Potency
1,CC(=O)CC(=O)Nc1ccc(S(=O)(=O)O)cc1,inactive
2,Cc1ccc(C(=O)c2cc(O)c(O)c([N+](=O)[O-])c2)cc1,"inconclusive: 61.6 µM [rising, partial curve, poor fit]"
3,NC(=O)OCC(COC(N)=O)c1ccccc1,inactive
4,COC(=O)c1ccccc1C(=O)O,inactive
5,O[C@@H]1CO[C@H]2[C@@H]1OC[C@@H]2O,inactive

# Molecular target: Glucocorticoid receptor (Homo sapiens) (UniProt P04150)
# Experiment: qHTS assay to identify small molecule antagonists of the glucocorticoid receptor (GR) signaling pathway (AID 720692; active = well fitted inhibition curve with a large enough effect in the signal ratio in the repeat runs, not every such curve was filed as active; inconclusive = weak or mixed curves, or effect the other way; inactive = no such curve, though single readings can be large or run the other way; the % refers to the signal ratio)
# Details: GR-bla HeLa, beta-lactamase FRET ratio, dexamethasone-stimulated, 18 h; activity change, negative = inhibition: at 58.5 µM (top of the series) unless noted
# How it was run: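 Antagonism was scored as loss of dexamethasone-driven (5 nM final) reporter signal in HeLa cells bearing a glucocorticoid response element–beta-lactamase construct, after 18 h compound exposure at 37 C and 2 h FRET substrate loading.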
SMILES,Potency,"activity change, negative = inhibition"
CC(=O)OC/C=C(/C)CCC=C(C)C,inactive,
C=C(C)CC(C)(C)C,inactive,
CN(C)C(=O)Oc1ccc[n+](C)c1,inactive,
CCN(Cc1ccncc1)C(=O)C(CO)c1ccccc1 (stereo unspecified),,inconclusive: -8.77%
O=C(O)CCCCCCC(=O)O,,inconclusive: 3.32% [at 78.9 µM]
N#CCCN(CCO)CCO,inactive,
CC(C)=CCC/C(C)=C/CC/C(C)=C/CCC(=O)OC/C=C(\C)CCC=C(C)C,,inconclusive: -33.9%
C=C1C[C@@]23CC[C@H]4[C@@](C)(CCC[C@@]4(C)C(=O)O[C@@H]4O[C@H](CO)[C@@H](O)[C@H](O)[C@H]4O)[C@@H]2CC[C@]1(O[C@@H]1O[C@H](CO)[C@@H](O)[C@H](O[C@@H]2O[C@H](CO)[C@@H](O)[C@H](O)[C@H]2O)[C@H]1O[C@@H]1O[C@H](CO)[C@@H](O)[C@H](O)[C@H]1O)C3,,inconclusive: 20.5%
CCCCCCCCCC=O,,inconclusive: -21.4%
CC(=O)CC(=O)Nc1ccc(S(=O)(=O)O)cc1,,inconclusive: 21.6%
C1CCCC1,,inconclusive: 21.6%
CC(CCC(=O)O)C(=O)O (stereo unspecified),inactive,
O=C(CCCN1CC=C(n2c(=O)[nH]c3ccccc32)CC1)c1ccc(F)cc1,inactive,
COc1cc(C(=O)NCCCCCC(=O)O)cc(OC)c1OC,inactive,
Cc1ccc(C(=O)c2cc(O)c(O)c([N+](=O)[O-])c2)cc1,inconclusive: 21.3 µM and active: 34.7 µM,
COc1cc(C)ccc1O,,inconclusive: 21.5%
CC1CC(OC(=O)C(O)c2ccccc2)CC(C)(C)N1C (stereo unspecified),inactive,
CCO[Si](CC(C)C)(OCC)OCC,,inconclusive: 6.95%
O=C(OCc1ccccc1)c1ccccc1,"inconclusive: 49 µM [activator, partial curve, poor fit]",
CCC1CO1 (stereo unspecified),inactive,
Cn1c(N)nc2nc[nH]c2c1=O,inactive,
O=C1OC(=O)c2c(Br)c(Br)c(Br)c(Br)c21,inactive,
CCN[C@H]1CN(CCCOC)S(=O)(=O)c2sc(S(N)(=O)=O)cc21,,inconclusive: 0.897% [at 27 µM]
O=C(O)Cc1ccccc1Oc1ccc(Cl)cc1Cl,,inconclusive: -3.59%
CC(C)C(=O)OCCOc1ccccc1,inactive,
CN(C)CCCNCCCN(C)C,inactive,
N#C[C@@H]1C[C@@H]2C[C@@H]2N1C(=O)[C@@H](N)C12CC3CC(CC(O)(C3)C1)C2,,inconclusive: -24.4%
CCCCOC(=O)C(C)O (stereo unspecified),inactive,
CC(CC=O)CCCC(C)(C)O (stereo unspecified),,inconclusive: 0.16%
O=S(=O)(O)CCCN1CCOCC1,inactive,

# System: not listed separately
# Experiment: qHTS assay to identify small molecule antagonists of the glucocorticoid receptor (GR) signaling pathway - cell viability counter screen (AID 720693); note: nearly all actives have a fitted effect of over 55% in size
# Details: GR-bla HeLa viability, CellTiter-Glo luminescence, 18 h, with 5 nM dexamethasone present; viability change, negative = cytotoxic: at 58.5 µM (top of the series)
row,SMILES,Potency
1,CCCCCCCCC=O,"inconclusive: 54.9 µM [cytotoxic, single point]"
2,Cc1cccc(O)c1C,"inconclusive: 61.2 µM [rising, partial curve, poor fit]"
3,Cc1ccsc1/C=C/C1=NCCCN1C,"inconclusive: 2.88 µM [rising, single point]"
4,CCO[Si](CC(C)C)(OCC)OCC,"inconclusive: 3.47 µM [rising, partial curve]"
5,C=C(C)c1ccccc1,"inconclusive: 55 µM [rising, single point]"
6,O=C(O)Cc1ccccc1Oc1ccc(Cl)cc1Cl,inactive
